Results from paper PMC4336329 (PLoS ONE, 2015).
The campaign covered roughly 310,000 compounds. About 14,000 (4.5%) showed an effect of 50% or more. Effects have a minus sign here. The list shows a part of the results.

The compounds below were run against human ether-à-go-go-related gene (hERG) potassium channel (human, UniProt Q12809) (assay: primary screen, population patch clamp on CHO cells stably expressing hERG).
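Note: peak tail current of the secondary pulse compared with the same well before compound.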

Chain of human ether-à-go-go-related gene (hERG) potassium channel (Q12809 whole entry, looked up): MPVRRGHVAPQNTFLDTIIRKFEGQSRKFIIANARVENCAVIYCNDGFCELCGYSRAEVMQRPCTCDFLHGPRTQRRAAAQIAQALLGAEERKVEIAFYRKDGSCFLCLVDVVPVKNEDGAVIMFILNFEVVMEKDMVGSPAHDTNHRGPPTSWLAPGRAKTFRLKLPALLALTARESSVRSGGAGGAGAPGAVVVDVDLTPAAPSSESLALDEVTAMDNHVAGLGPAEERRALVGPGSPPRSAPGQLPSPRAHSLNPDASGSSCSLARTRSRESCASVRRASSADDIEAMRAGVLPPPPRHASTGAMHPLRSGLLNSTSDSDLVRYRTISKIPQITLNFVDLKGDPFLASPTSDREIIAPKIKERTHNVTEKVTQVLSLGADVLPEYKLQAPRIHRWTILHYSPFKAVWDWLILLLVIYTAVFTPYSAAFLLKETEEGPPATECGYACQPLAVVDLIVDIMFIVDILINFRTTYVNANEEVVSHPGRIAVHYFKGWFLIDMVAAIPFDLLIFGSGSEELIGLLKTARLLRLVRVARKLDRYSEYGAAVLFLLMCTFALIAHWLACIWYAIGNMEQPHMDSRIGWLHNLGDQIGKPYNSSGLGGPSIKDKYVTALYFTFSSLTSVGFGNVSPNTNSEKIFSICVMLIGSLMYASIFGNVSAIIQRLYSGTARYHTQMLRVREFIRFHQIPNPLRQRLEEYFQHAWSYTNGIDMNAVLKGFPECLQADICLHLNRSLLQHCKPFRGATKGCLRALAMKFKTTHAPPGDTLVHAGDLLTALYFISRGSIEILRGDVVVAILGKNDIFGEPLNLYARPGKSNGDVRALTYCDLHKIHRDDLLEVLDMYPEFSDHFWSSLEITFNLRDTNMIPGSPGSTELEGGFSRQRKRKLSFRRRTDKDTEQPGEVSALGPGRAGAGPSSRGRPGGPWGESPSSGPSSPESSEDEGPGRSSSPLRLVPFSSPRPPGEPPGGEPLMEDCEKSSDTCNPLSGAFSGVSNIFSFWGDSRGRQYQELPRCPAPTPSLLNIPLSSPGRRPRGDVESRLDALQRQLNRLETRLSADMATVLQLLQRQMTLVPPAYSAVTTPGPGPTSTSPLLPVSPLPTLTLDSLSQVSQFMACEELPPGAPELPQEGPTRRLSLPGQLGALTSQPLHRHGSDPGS

Structure (SMILES)	hERG current change (%, negative = inhibition) at 10uM [%]
CC(C)(C)c1ccc(C(=O)N2CCN(c3ncccn3)CC2)cc1	-10.9
COc1ccc(C)cc1NC(=O)NNC(=O)C(C)Oc1ccc([N+](=O)[O-])cc1 (stereo not drawn)	-25.5
Cc1cc(=O)[nH]c(SCC(=O)NCc2ccco2)n1	17.9
COc1ccc(/C=C(\C#N)C(=O)NCc2cccs2)cc1OC	-18.4
Cn1c(=O)n(C)c2cc(NC(=O)CSc3ccccc3)ccc21	4.01
CCC(NC(=O)c1ccc(C#CC2(O)CCCCC2)cc1)C(=O)O (stereo not drawn)	10.5
Cc1ccc(Cn2nnc3c(=O)n(CC(=O)OCc4ccccc4)cnc32)cc1	-18.2
CCc1ccccc1NC(=O)c1nnn(CC(=O)Nc2ccccc2C)c1N	2.13
COc1ccccc1/C=C/C=N/NC(=O)Cc1cccs1	-5.65
Cc1ccc(C(=O)N2CCCCC2)cc1S(=O)(=O)N1CCOCC1	22
COc1ccc(C(=O)Nc2ccc(S(=O)(=O)N3CCCC3)cc2)cc1	-12.4
COc1ccc(N2CCN(S(=O)(=O)c3cc4c(cc3C)N(C(C)=O)CCO4)CC2)cc1	-5.61
O=C(O)c1cccc(NC(=S)NC(=O)c2ccc3ccccc3c2)c1	5.36
O=C(COC(=O)CNC(=O)C1CCCCC1)Nc1ccc2ccccc2c1	-1.78
CN(C)S(=O)(=O)c1cccc(NC(=S)N/N=C/c2cccc(O)c2)c1	11.9
Nn1c(COc2ccccc2)nc2ccccc2c1=O	-5.35
O=C(OCc1c(F)cccc1Cl)c1cccc(S(=O)(=O)N2CCOCC2)c1	-11.3
CCOC(=O)c1[nH]c(C)c(C(=O)N2CCN(c3ccc(OC)cc3)CC2)c1C	-10.5
CCOC(=O)[C@H]1[C@H]2COc3ccc(C)cc3[C@@H]2N2C(=O)c3ccccc3NC(=O)[C@@]12C	-26.1
Cc1ccc(C(=O)C2C(=O)c3ccccc3C2=O)cc1	3.61
COc1ccccc1/C=N/NC(=O)c1ccc(-c2ccccc2)cc1	1.05
O=C(c1ccccc1)[C@H]1CC=CC[C@H]1C(=O)O	0.433
CCOc1ccc2nc(NCCCNS(=O)(=O)c3ccc(F)cc3)c(C#N)cc2c1	6.2
N#CCSc1nc2scc(-c3cccs3)c2c(=O)n1CCc1ccccc1	9.89
